Screen size: about 46,000 compounds; about 60 (0.1%) were called active. Inconclusive results (about 3%) are left out. The call rests on the fitted dose curve; in most records, active means well fitted inhibition curve with a large enough effect; inconclusive means small, poorly fitted or top-dose-only effect; inactive means no such curve, though single readings can be large or run the other way. The list shows a part of the results.
Experiment: Primary qHTS assay for Inhibitors of ovarian cancer metastasis using an organotypic tumor microenvironment (TME) model. Further: nearly all actives have a fitted effect of over 65% in size.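 On activity change, negative = inhibition: plate controls were DMSO wells for no effect and tomatine positive control wells for full effect.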
Conditions: SKOV3ip1-GFP adhesion/invasion on 3D omental model, fluorescence; series mostly up to 45.8 µM; activity change, negative = inhibition: at the top concentration
In short: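 qHTS, 4-pt dose (0.36-46 umol/L); SKOV3ip1-GFP, 1,200 cells/well, no FBS; primary omental fibroblast/mesothelial co-culture 48 h pre-grown; 2 h RT + 16 h 37 C; PBS wash, 4% PFA; GFP count 488/509 nm.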

Activity change, negative = inhibition, inactive:
COc1ccc(NC(=O)CCCn2nc(C)c3sc4ccccc4c3c2=O)cc1 -6.65%
Cc1cc(C(=O)Nc2ccc(-n3c(C)nc4ccccc4c3=O)cc2)ccc1[N+](=O)[O-] -6.16%
CCC(C)Nc1ncnc2c1cnn2-c1ccc(F)cc1 (stereo not given) -2.65%
CC1CCCN(S(=O)(=O)c2ccc3c(c2)CCN3C(=O)CCC(=O)O)C1 (stereo not given) 14.5%
Cc1cccc(Cc2c(C)nc3c(-c4ccccc4)c(C)[nH]n3c2=O)c1 64.8%
O=C(CC1C(=O)N(c2ccc(F)cc2)C(=O)N1Cc1ccc2c(c1)OCO2)Nc1ccc(Cl)cc1 (stereo not given) 0.94%
Cc1ccc(-n2cc(C(=O)Oc3ccc(F)cc3)c3ccccc3c2=O)cc1 10.3%
O=C(CSc1oc(-c2ccccc2)nc1S(=O)(=O)c1ccc(Cl)cc1)c1ccccc1 3.51%
Cc1ccc2c(=O)cc(C(=O)Nc3ccc(S(=O)(=O)Nc4onc(C)c4C)cc3)oc2c1C 0.323%
Cc1cc(C)nc(-n2nc(C)c3c2N(Cc2ccccc2)C(=O)CC3c2ccc(Cl)cc2)n1 (stereo not given) 5.37%
Cc1[nH]c(C=C2C(=O)Nc3ccc(S(=O)(=O)N(C)c4cccc(Cl)c4)cc32)c(C)c1C(=O)N1CCN(C)CC1 12.9%
CCC(=O)N1c2ccccc2CC1C(=O)NCc1cc(OC)ccc1OC (stereo not given) 8.01%
O=C(CCn1c(=O)c2cccn2c2cccnc21)Nc1ccccc1C(F)(F)F -8%
Cc1cc(C)cc(OCC(=O)Nc2c(C(=O)c3ccccc3)oc3ccccc23)c1 2.11%
CCN(C(=O)Cn1c(=O)n(-c2ccccc2)c(=O)c2ccc(C(=O)NCc3ccc4c(c3)OCO4)cc21)c1cccc(C)c1 -28.9%
CCCCn1cnc2cc(NCc3ccc(OCC)cc3)ccc21 -2.53%
CC(C)c1ccc(NC(=O)c2cc(S(=O)(=O)N(C)C3CCCCC3)ccc2F)cc1 2.16%
CCOc1ccc(CNC(=O)C2CCCCN2S(=O)(=O)c2ccc(F)cc2)cc1OC (stereo not given) 0.985%
CCn1cc(S(=O)(=O)c2cccc(C)c2)c(=O)c2cc(F)c(N3CCCC(C)C3)cc21 (stereo not given) 7.04%
O=C(CCC(=O)c1ccc(F)cc1)Nc1ccc(Cl)cc1 -4.37%
NS(=O)(=O)c1ccc(Nc2nc(OCC3CCCCC3)c3[nH]cnc3n2)cc1 41.1%
CCn1c(=O)c2cc(C(=O)NCCCN3CCN(C)CC3)sc2c2ccccc21 -8.43%
COc1ccc(-c2nc3c(c(SC)n2)Cc2c(CO)cnc(C)c2O3)cc1 10%
CCOc1ccc(NC(=O)CSC2=Nc3ccccc3C3=NC(CCC(=O)NCc4ccco4)C(=O)N23)cc1 (stereo not given) -13.1%
Cc1ccc(Cl)cc1N1CCN(C(=O)Cn2ncc3c4ccccc4n(C)c3c2=O)CC1 -1.44%
CCC(=O)Oc1c(Sc2ccc(Cl)cc2)c(C)nn1-c1ccccc1 -1.32%
Cc1ccc(-c2nc(CS(=O)(=O)CC(=O)Nc3ccc(Br)cc3F)c(C)o2)cc1 -3.81%
Cc1ccc(Nc2c(-c3ccc(Br)o3)nc3ccccn23)cc1 0.472%
COc1ccc(S(=O)(=O)NCc2nc3nc(C)cc(C)n3n2)cc1 9.68%
CCN(CC)S(=O)(=O)c1ccc2c(c1)N(CC(=O)NCc1ccccc1)C(=O)C1CCCCN21 (stereo not given) 2.73%
Cc1cc2c(cc1S(=O)(=O)Nc1ccc(OC(F)(F)F)cc1)OCC(=O)N2 0.492%
Cc1ccc(-c2csc(-c3cc4c([nH]c3=O)CC(c3ccccc3)CC4=O)n2)cc1 (stereo not given) 6.92%
Cc1cc(C=c2sc3nc4ccccc4n3c2=O)c(C)n1-c1ccccc1 -26.9%
CC1CCCN(c2nc3c(-c4ccc(Cl)cc4)nnn3c3ccccc23)C1 (stereo not given) 3.03%
Cc1nc(SCc2cccc(Cl)c2)nc2c1CCCC2 1.41%
Cc1ccccc1Cn1c(SCc2ccc(C(=O)NC3CCCCC3)cc2)nc2ccncc21 -6.9%
Cc1ccc2ncc(C(=O)c3ccc(C)c(C)c3)c(S(=O)(=O)c3ccc(F)cc3)c2c1 -1.96%
CCOc1ccc(CC(=O)NCCc2sc3nc(-c4ccc(F)cc4)nn3c2C)cc1 6.19%
Fc1ccc(NCc2ccccc2-c2nnc(-c3ccccc3Cl)o2)cc1 0.459%
CCOc1ccc(-c2cc3nc(C4CCN(C(=O)OC(C)(C)C)CC4)c(C(=O)Nc4cccc(CC)c4)cn3n2)cc1 -10.1%
COc1cc(NC(=O)Cn2c(=O)cc(C)c3c(C)nn(-c4ccc(C)cc4)c32)cc(OC)c1 -8.9%
Cc1ccc(CNc2nnc(C)c3nnn(Cc4ccc(F)cc4)c23)cc1 4.93%
CC1=C(c2ccc(Cl)cc2)S(=O)(=O)N=C1N1CCN(c2cccc(C)c2C)CC1 -2.41%
CCCCOc1ccc(C(=O)N(Cc2ccc(N(C)C)cc2)Cc2ccco2)cc1 -7.56%
Cc1ccc(-n2ccn(CC(=O)NCCc3ccccc3)c(=O)c2=O)cc1C 0.274%
CC(C)(C)c1ccc(-c2nc(NC(=O)CSc3ncnc4sc5c(c34)CCCC5)ns2)cc1 3.84%
COc1ccc(NC(=O)CN(C)S(=O)(=O)c2ccc3c(c2)CCCN3C(C)=O)cc1 25.6%
CCc1ccc(NC(=O)CSc2nccn2-c2ccc(F)cc2)cc1 -17.7%
Cc1ccccc1CNC(=O)c1ccc2nc(SCc3ccc(F)cc3)n(C)c2c1 -9.93%
CCOCCCNC(=O)C(c1ccccc1)N(Cc1ccc2c(c1)OCO2)C(=O)c1ccc(NC(C)=O)cc1 (stereo not given) 4.3%
COc1ccccc1NC(=O)CSc1nncn2c1cc1sccc12 -23%
O=C(c1ccco1)N(Cc1cccnc1)c1nc2c(F)cc(F)cc2s1 -6.72%
COc1ccc2cc1Oc1ccc(cc1)C[C@H]1c3cc(c(OC)cc3CCN1C)Oc1c(OC)c(OC)cc3c1[C@H](C2)N(C)CC3 1.09%
CCc1ccccc1NC(=O)Cn1cc(S(=O)(=O)N2CCCC2)c(S(=O)(=O)N2CCCC2)c1 1.55%
CCc1ccccc1NC(=O)CN(c1ccccc1)S(=O)(=O)c1ccsc1C(=O)OC -2.51%
Cc1ccccc1CN1C(=O)c2ccccc2S(=O)c2ccc(C(=O)NCc3ccc(Cl)cc3)cc21 (stereo not given) 0.468%
CCOC(=O)c1ccc(NC(=O)C(CC)Sc2nc3ccncc3[nH]2)cc1 (stereo not given) -3.36%
Cc1cc(C)cc(-n2c(C)cc(C(=O)C(=O)Nc3ccccc3F)c2C)c1 2.85%
CCn1c(=O)cc(SCC(=O)NCc2cccc(Cl)c2)c2ccccc21 -7.2%
COc1ccccc1C(=O)N1c2ncnn2C2(CCCCC2)[C@@H]2CCCC[C@@H]21 -0.919%
CC(C)c1ccc(OCC(=O)NCCS(=O)(=O)N2CCN(c3ccc(F)cc3)CC2)cc1 -0.117%
Cc1c(Cl)cccc1NC(=O)c1ccc2c(c1)CCCN2S(C)(=O)=O -23%
CCCCOc1ccc(C(=O)Nc2ccc(-c3cc4ccccc4oc3=O)cc2)cc1 -1.31%
CC(C)(C)OC(=O)N1CCC(c2c(C(=O)NCCN3CCc4ccccc4C3)cnn2-c2ccc(F)cc2)CC1 0.168%
Cc1ccc(CNC(=O)Nc2cc(C(=O)NCc3ccc(C(C)C)cc3)ccc2N2CCCC2)cc1 -0.653%
Cc1ccc(N2CC(NC(=O)c3cc4ccccc4o3)CC2=O)cc1C (stereo not given) -5.94%
CCc1ccccc1NC(=O)CCOc1ccccc1 -12.1%
CCCOc1ccc(-c2nonc2NC(=O)c2cc(OC)c(OC)c(OC)c2)cc1OCCC -17%
CC(C)c1nn2c(=O)cc(COC(=O)c3cccc(NC(=O)c4cccs4)c3)nc2s1 1.59%
COCCNC(=O)c1c[nH]c2ccc(S(=O)(=O)Nc3ccc(F)cc3F)cc2c1=O 16.5%
Cn1ccc2c(OCC(=O)NCc3ccccc3)cccc2c1=O -0.432%
CCOC(=O)c1cnc2nc(NCc3cccc(Br)c3)[nH]n2c1=O -3.06%

outcome, inactive:
COc1ccc(NS(=O)(=O)c2ccc3nc(-c4ccccc4)[nH]c3c2)cc1
Cc1c(Cl)cccc1NS(=O)(=O)c1ccc(-c2cnc(C3CC3)o2)cc1
CCOc1ccc(NC(=O)c2cc(S(=O)(=O)N3CCc4ccccc43)ccc2F)cc1
O=C(c1ccc2c(c1)N(Cc1ccccc1F)C(=O)c1ccccc1S2(=O)=O)N1CCN(c2ccccn2)CC1
O=C(CSc1n[nH]c(-c2ccccc2Cl)n1)NCc1ccc(F)cc1
Cc1ccccc1NC(=O)c1c(C)oc2ccc(O)c(CN3CCOCC3)c12
O=C(NCCCN1CCN(c2cccc(Cl)c2)CC1)c1sc2ncccc2c1-n1cccc1
COc1ccc2oc(=O)c(-c3nnc(-c4ccc(C)cc4)o3)cc2c1
Cc1cc(Cl)ccc1NS(=O)(=O)c1c(C(=O)N2CCC(C)CC2)c(C)n(C)c1C
CC(C)N(Cc1nc(-c2ccc(Cl)cc2)no1)C(=O)c1ccc(C(C)(C)C)cc1
O=C(NCCc1csc(-c2cccnc2)n1)c1cccc(Cl)c1
CC(=O)N1c2ccc(S(=O)(=O)N3CCCCCC3)cc2CC1C(=O)NCc1cccc(C)c1 (stereo not given)
COc1cccc(CN2C(=O)c3ccccc3Sc3ccc(C(=O)OCc4ccco4)cc32)c1
Cc1ccc(-n2ncc3c(NCc4ccccc4)ncnc32)cc1Cl
COc1ccc(N2CC(NC(=O)/C=C\c3ccc4c(c3)OCO4)CC2=O)cc1OC (stereo not given)
Cc1ccc2cccc(NC(=O)c3ccc(OC(C)C)cc3)c2n1
O=C(NCc1ccc2c(c1)OCO2)c1ccc2c(c1)N(Cc1ccccc1F)C(=O)c1ccccc1S2
CCCOc1ccc(-c2cccc(NS(=O)(=O)c3ccccc3)c2)nn1
CCC(=O)C1=C(c2ccc(F)cc2)N(C(=O)CC)n2cnnc2S1
COc1ccc(Cn2c(C(=O)O)c(CNC3CCCC3)c3ccc(OC)cc32)cc1
CCOc1ccc(-c2nn(-c3ccccc3)cc2C2NC(=O)NC(C)=C2C(=O)OC(C)C)cc1 (stereo not given)
CCc1ccc(C2=NN(CCC(=O)NCCc3ccc(OC)c(OC)c3)C(=O)CC2)cc1
COc1ccccc1CNS(=O)(=O)c1ccc(-c2cnc(C3CC3)o2)cc1

From PubChem BioAssay AID1963576 (National Center for Advancing Translational Sciences (NCATS), 2024)
